# Assay results from PubChem BioAssay AID2675 (National Center for Advancing Translational Sciences (NCATS), 2010).
# About 100 (0.036%) of roughly 280,000 compounds were called active. Inconclusive results, whose numbers are uncertain, are shown with a selection of clear calls. The call rests on the fitted dose curve; in most records, active means well fitted inhibition curve with a large enough effect in the signal ratio, with a control signal flat (not every such curve was filed as active); inconclusive means small, poorly fitted or top-dose-only effect, or effect the other way, or a change in a side signal; inactive means no such curve, though single readings can be large or run the other way; the % refers to the signal ratio. Where the call is inconclusive, the potency comes from a doubtful curve fit. “Side channel” marks fits to a control or component signal instead of the main read-out.
# Target: Muscleblind-like protein 1 (Homo sapiens) (UniProt Q9NR56)
# Chain of UniProt Q9NR56 (Q9NR56 whole entry, looked up): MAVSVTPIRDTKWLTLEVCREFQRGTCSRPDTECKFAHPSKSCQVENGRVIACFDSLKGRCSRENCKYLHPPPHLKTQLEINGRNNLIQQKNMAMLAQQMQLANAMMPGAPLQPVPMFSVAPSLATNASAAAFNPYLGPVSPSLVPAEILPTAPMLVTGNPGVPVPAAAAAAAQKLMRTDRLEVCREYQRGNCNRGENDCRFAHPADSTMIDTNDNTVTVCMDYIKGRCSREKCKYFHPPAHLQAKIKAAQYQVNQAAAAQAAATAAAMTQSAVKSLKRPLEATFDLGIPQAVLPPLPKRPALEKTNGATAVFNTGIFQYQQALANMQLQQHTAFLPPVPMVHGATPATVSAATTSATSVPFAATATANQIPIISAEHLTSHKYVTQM
# Assay: qHTS Assay for Inhibitors of MBNL1-poly(CUG) RNA binding
# Conditions: TR-FRET MBNL1-His/biotin-(CUG)12 binding, 665/545 ratio; activity change, negative = inhibition: at 57.5 µM (top of the series)
# Procedure, shortened: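 MBNL1-His + Biotin-(CUG)12, cpd titration 92 nM–58 uM; Tb anti-His Ab 0.055 ng/ul, SA-XL665 5 nM (final); 60 min RT; ratiometric 665/545 nm, Ex 340 nm; normalized to buffer and full-complex controls.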
# On the % scale 0 is the no-effect control and ±100 the full control effect; potency means the concentration at half of the fitted maximal effect; tags describe the fitted curve by direction and shape or compound fluorescence and quenching.
SMILES,Potency,"activity change, negative = inhibition"
Cc1nnc(-c2ccccc2)c[n+]1[O-],"inconclusive: 14.1 µM [quencher, side channel, partial curve]",–
CCOC(=O)c1cnc2ccc(OCC)cc2c1NCCN1CCOCC1,"inconclusive: 7.94 µM [quencher, side channel, partial curve]",–
Cc1ccc(C(=O)NCC2CCCO2)cc1N1CCCC1=O (stereo not given),–,inactive: 5.9%
Nc1nnc(CC(=O)N/N=C/c2cccc([N+](=O)[O-])c2)s1,"inconclusive: 14.1 µM [quencher, side channel, partial curve]",–
COc1ccc(OC)c(/C=C2\SC(N3CCCC(C)C3)=NC2=O)c1 (stereo not given),"inconclusive: 10 µM [quencher, side channel, partial curve]",–
NC(=O)CC(NC(=O)Cc1ccc(Br)cc1)c1ccc(NCc2ccccn2)c([N+](=O)[O-])c1 (stereo not given),"inconclusive: 15.8 µM [quencher, side channel, partial curve]",–
Cc1cc(C=C2C(=O)c3ccccc3C2=O)c(C)n1C,"inconclusive: 15.8 µM [activator, single point]",–
FC(F)(F)c1ccc(Cl)c(NC(=S)NC2CC2)c1,–,inactive: -4.49%
Cc1ccc(S(=O)(=O)N2CCN(C)CC2)c2nsnc12,"inconclusive: 15.8 µM [quencher, side channel, partial curve]",–
CC(C)C(NS(=O)(=O)c1cccc2nsnc12)C(=O)Nc1nccs1 (stereo not given),"inconclusive: 17.8 µM [quencher, side channel, partial curve]",–
O=C(O)COn1c(-c2ccccc2)nc2ccc([N+](=O)[O-])cc21,"inconclusive: 17.8 µM [quencher, side channel, partial curve]",–
COc1cccc(Nc2nnc(SCC3CCCCO3)s2)c1 (stereo not given),–,inactive: -2.73%
O=C1CC(c2ccccc2)CC(O)=C1C=NCCc1ccccc1 (stereo not given),–,inactive: 1.2%
C1CN(c2nc3nonc3n3nnnc23)CCO1,"inconclusive: 12.6 µM [quencher, partial curve]",–
CCNc1ccc(C(=O)Nc2ccc3nc(C)sc3c2)cc1[N+](=O)[O-],"inconclusive: 14.1 µM [quencher, side channel, partial curve]",–
CCc1ccc(/C=C/c2c([N+](=O)[O-])c(=O)n(C)c(=O)n2C)cc1,"inconclusive: 28.2 µM [quencher, side channel, single point]",–
CCOCCCNC1=C(Cl)C(=O)c2ccccc2C1=O,"inconclusive: 14.1 µM [quencher, side channel, partial curve]",–
CC(=O)c1cnc2c(-c3ccccc3)cnn2c1C,"inconclusive: 20 µM [quencher, side channel, partial curve]",–
COc1cc(/C=N/NC(=O)c2cccc(N3CCCC3=O)c2)ccc1O,"inconclusive: 28.2 µM [quencher, side channel, single point]",–
CN1C(=O)C(O)(CC(=O)c2ccccc2O)c2cc(Br)ccc21 (stereo not given),"inconclusive: 39.8 µM [quencher, side channel, single point]",–

SMILES,Potency,"activity change, negative = inhibition"
Cc1nc([N+](=O)[O-])c(C(=O)OCc2cccc(Br)c2)n1C,"inconclusive: 12.6 µM [quencher, side channel, partial curve]",–
CC(C)C(NS(=O)(=O)c1cccc2nsnc12)C(=O)NCCC1=CCCCC1 (stereo not given),"inconclusive: 15.8 µM [quencher, side channel, partial curve]",–
O=C(O)c1cc(-n2nnnc2SCc2ccc([N+](=O)[O-])cc2)ccc1Cl,"inconclusive: 20 µM [quencher, side channel, partial curve]",–
O=[N+]([O-])c1ccc(COc2cccc3cccnc23)cc1,"inconclusive: 12.6 µM [quencher, side channel, partial curve]",–
Cc1ccc(C(=O)c2nc3c(n2O)CCCC3)cc1,"inconclusive: 17.8 µM [quencher, side channel, partial curve]",–
CCc1nnc(NS(=O)(=O)c2ccc(NC(=O)c3cccc([N+](=O)[O-])c3)cc2)s1,"inconclusive: 2.51 µM [quencher, side channel, full curve]",–
O=[N+]([O-])c1cccc(/C=N/Nc2nccnc2Cl)c1,"inconclusive: 12.6 µM [quencher, partial curve]",–
COc1cccc(-c2nnc(SCC(=O)OC(C)C)n2Cc2ccco2)c1,–,inactive: -10.1%
CC(C)C(NS(=O)(=O)c1ccc2c3c(cccc13)C(=O)N2)C(=O)O (stereo not given),"inconclusive: 17.8 µM [quencher, side channel, single point]",–
CNc1nnc(-c2ccco2)s1,"inconclusive: 7.08 µM [fluorescent, side channel, single point]",–
CC(C)(C)C(=O)NNC(=O)c1cc2sccc2s1,"inconclusive: 22.4 µM [quencher, side channel, single point]",–
c1ccc2[nH]c(SCc3cn4cccnc4n3)nc2c1,–,inactive: 9.96%
CCN(CC)S(=O)(=O)c1ccc(C(=O)NCc2ccc3c(c2)cc(C)n3C)cc1,"inconclusive: 0.355 µM [quencher, side channel, partial curve, poor fit]",–
CCc1ccccc1NC(=O)C1=CC(c2cccs2)=NS(=O)(=O)N1C,"inconclusive: 12.6 µM [quencher, side channel, partial curve]",–
Cc1ccc(OCC(=O)Nc2cccc(O)c2)cc1C,–,inactive: -2.35%
Cc1ccc(N/N=C(\C#N)C(N)=S)c(C)c1,–,inactive: -17.4%
CN(C)c1ccc(/C=C2\C(=N)N3C(=NC2=O)Sc2cc(S(C)(=O)=O)ccc23)cc1,–,inactive: 9.89%
CCC(=O)Nc1ccccc1C(=O)OCc1ccc(C(=O)c2ccccc2)cc1,"inconclusive: 79.4 µM [inhibitor, single point]",–
Cc1[nH]n(-c2ccccc2)c(=O)c1/C=N/NC(=O)c1ccc(O)cc1O,–,inactive: -5.75%
O=S1(=O)CCC(N=Nc2c(O)n(Cc3ccccc3)c3ccccc23)C1 (stereo not given),"inconclusive: 31.6 µM [quencher, side channel, single point]",–
